This note sets out measurements from patent publication US20230365958.

B1: wild-type PPE protein (native PPE; wild-type, active PPE peptidase domain) (protein)
chain: VVGGTEAQRNSWPSQISLQYRSGSSWAHTCGGTLIRQNWVMTAAHCVDRELTFRVVVGEHNLNQNDGTEQYVGVQKIVVHPYWNTDDVAAGYDIALLRLAQSVTLNSYVQLGVLPRAGTILANNSPCYITGWGLTRTNGQLAQTLQQAYLPTVDYAICSSSSYWGSTVKNSMVCAGGDGVRSGCQGDSGGPLHCLVNGQYAVHGVTSFVSRLGCNVTRKPTVFTRVSAYISWINNVIASN
B2: wild-type PPE proprotein (WT rPPE) (protein)
chain: VVGGTEAQRNSWPSQISLQYRSGSSWAHTCGGTLIRQNWVMTAAHCVDRELTFRVVVGEHNLNQNDGTEQYVGVQKIVVHPYWNTDDVAAGYDIALLRLAQSVTLNSYVQLGVLPRAGTILANNSPCYITGWGLTRTNGQLAQTLQQAYLPTVDYAICSSSSYWGSTVKNSMVCAGGDGVRSGCQGDSGGPLHCLVNGQYAVHGVTSFVSRLGCNVTRKPTVFTRVSAYISWINNVIASN
B3: Mutant J (D74A) modified PPE protein, activated (protein)
chain: VVGGTEAQRNSWPSQISLQYRSGSSWAHTCGGTLIRQNWVMTAAHCVARELTFRVVVGEHNLNQNDGTEQYVGVQKIVVHPYWNTDDVAAGYDIALLRLAQSVTLNSYVQLGVLPRAGTILANNSPCYITGWGLTRTNGQLAQTLQQAYLPTVDYAICSSSSYWGSTVKNSMVCAGGDGVRSGCQGDSGGPLHCLVNGQYAVHGVTSFVSRLGCNVTRKPTVFTRVSAYISWINNVIASNHHHHHH
B4: Mutant A (N241A) modified PPE protein, activated (protein)
chain: VVGGTEAQRNSWPSQISLQYRSGSSWAHTCGGTLIRQNWVMTAAHCVDRELTFRVVVGEHNLNQNDGTEQYVGVQKIVVHPYWNTDDVAAGYDIALLRLAQSVTLNSYVQLGVLPRAGTILANNSPCYITGWGLTRTNGQLAQTLQQAYLPTVDYAICSSSSYWGSTVKNSMVCAGGDGVRSGCQGDSGGPLHCLVNGQYAVHGVTSFVSRLGCAVTRKPTVFTRVSAYISWINNVIASNHHHHHH
B5: Mutant G (R237A) modified PPE protein, activated (protein)
chain: VVGGTEAQRNSWPSQISLQYRSGSSWAHTCGGTLIRQNWVMTAAHCVDRELTFRVVVGEHNLNQNDGTEQYVGVQKIVVHPYWNTDDVAAGYDIALLRLAQSVTLNSYVQLGVLPRAGTILANNSPCYITGWGLTRTNGQLAQTLQQAYLPTVDYAICSSSSYWGSTVKNSMVCAGGDGVRSGCQGDSGGPLHCLVNGQYAVHGVTSFVSALGCNVTRKPTVFTRVSAYISWINNVIASNHHHHHH
B6: Mutant C (R75A) modified PPE protein, activated (protein)
chain: VVGGTEAQRNSWPSQISLQYRSGSSWAHTCGGTLIRQNWVMTAAHCVDAELTFRVVVGEHNLNQNDGTEQYVGVQKIVVHPYWNTDDVAAGYDIALLRLAQSVTLNSYVQLGVLPRAGTILANNSPCYITGWGLTRTNGQLAQTLQQAYLPTVDYAICSSSSYWGSTVKNSMVCAGGDGVRSGCQGDSGGPLHCLVNGQYAVHGVTSFVSRLGCNVTRKPTVFTRVSAYISWINNVIASNHHHHHH
B7: Mutant D (R75E) modified PPE protein, activated (protein)
chain: VVGGTEAQRNSWPSQISLQYRSGSSWAHTCGGTLIRQNWVMTAAHCVDEELTFRVVVGEHNLNQNDGTEQYVGVQKIVVHPYWNTDDVAAGYDIALLRLAQSVTLNSYVQLGVLPRAGTILANNSPCYITGWGLTRTNGQLAQTLQQAYLPTVDYAICSSSSYWGSTVKNSMVCAGGDGVRSGCQGDSGGPLHCLVNGQYAVHGVTSFVSRLGCNVTRKPTVFTRVSAYISWINNVIASNHHHHHH
B8: Mutant F (Q211F) modified PPE protein, activated (protein)
chain: VVGGTEAQRNSWPSQISLQYRSGSSWAHTCGGTLIRQNWVMTAAHCVDRELTFRVVVGEHNLNQNDGTEQYVGVQKIVVHPYWNTDDVAAGYDIALLRLAQSVTLNSYVQLGVLPRAGTILANNSPCYITGWGLTRTNGQLAQTLQQAYLPTVDYAICSSSSYWGSTVKNSMVCAGGDGVRSGCFGDSGGPLHCLVNGQYAVHGVTSFVSRLGCNVTRKPTVFTRVSAYISWINNVIASNHHHHHH
B9: Mutant H (T55A) modified PPE protein, activated (protein)
chain: VVGGTEAQRNSWPSQISLQYRSGSSWAHACGGTLIRQNWVMTAAHCVDRELTFRVVVGEHNLNQNDGTEQYVGVQKIVVHPYWNTDDVAAGYDIALLRLAQSVTLNSYVQLGVLPRAGTILANNSPCYITGWGLTRTNGQLAQTLQQAYLPTVDYAICSSSSYWGSTVKNSMVCAGGDGVRSGCQGDSGGPLHCLVNGQYAVHGVTSFVSRLGCNVTRKPTVFTRVSAYISWINNVIASNHHHHHH

The target of the series is human alpha-1-anti-trypsin, P01009.
Sequence of human alpha-1-anti-trypsin, P01009 (P01009 whole entry, looked up): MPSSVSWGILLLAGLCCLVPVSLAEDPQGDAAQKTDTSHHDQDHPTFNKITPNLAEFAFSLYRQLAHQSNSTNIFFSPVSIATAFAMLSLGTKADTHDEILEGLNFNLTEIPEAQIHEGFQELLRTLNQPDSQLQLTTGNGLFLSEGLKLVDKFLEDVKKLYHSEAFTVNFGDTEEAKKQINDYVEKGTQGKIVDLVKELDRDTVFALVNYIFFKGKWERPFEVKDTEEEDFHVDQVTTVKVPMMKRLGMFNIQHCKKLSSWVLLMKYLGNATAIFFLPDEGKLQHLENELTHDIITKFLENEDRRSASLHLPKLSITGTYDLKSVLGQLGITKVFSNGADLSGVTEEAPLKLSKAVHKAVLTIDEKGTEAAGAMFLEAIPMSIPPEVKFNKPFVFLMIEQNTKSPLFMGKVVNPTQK
Regarding B1, the Slope (linear regression of the decrease in enzyme activity versus A1AT concentration, 0-20 nM A1AT, colorimetric substrate assay) is -2.06.

In turn, B2 returned a Slope (linear regression of the decrease in enzyme activity versus A1AT concentration, 0-20 nM A1AT, colorimetric substrate assay) of -2.68.

Protein B3 displayed a Slope (linear regression of the decrease in enzyme activity versus A1AT concentration, 0-20 nM A1AT, colorimetric substrate assay) of -4.98.

Protein B4 showed a Slope (linear regression of the decrease in enzyme activity versus A1AT concentration, 0-20 nM A1AT, colorimetric substrate assay) of -3.64.

The protein B5 returned a Slope (linear regression of the decrease in enzyme activity versus A1AT concentration, 0-20 nM A1AT, colorimetric substrate assay) of -2.

The protein B6 showed a Slope (linear regression of the decrease in enzyme activity versus A1AT concentration, 0-20 nM A1AT, colorimetric substrate assay) of -2.86.

As to B7, the Slope (linear regression of the decrease in enzyme activity versus A1AT concentration, 0-20 nM A1AT, colorimetric substrate assay) is -3.94.

Consider B8, for which the Slope (linear regression of the decrease in enzyme activity versus A1AT concentration, 0-20 nM A1AT, colorimetric substrate assay) was -3.37.

For the protein B9, the Slope (linear regression of the decrease in enzyme activity versus A1AT concentration, 0-20 nM A1AT, colorimetric substrate assay) is -0.8.
